Experimental data from PubChem BioAssay AID1346428 (National Center for Advancing Translational Sciences (NCATS), 2018).
The whole screen tested about 48,000 compounds, of which about 1,200 (2.5%) were called active. Roughly 2% stayed inconclusive and do not appear here.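 How the source made its calls: active means activation of at least 60% and not above a set upper limit (about 1 call in 100 departs from these limits); inconclusive means activation of 40% to 60%, or above that upper limit; inactive means activation under 40%.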 Some of the results follow.

biological target: Probable G-protein coupled receptor 32 (Homo sapiens) (UniProt O75388); assay: qHTS for Agonists of Human Resolvin D1 Receptor DRV1; conditions: CHO-K1 GPR32 beta-arrestin PathHunter luminescence, 90 min; at 76.9 µM; hits give high values; zero percent set by DMSO-only wells; further: 0% is about no effect
Method in brief: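 GPR32 activation in stably transfected CHO-K1 cells, detected as beta-arrestin recruitment by enzyme-fragment complementation. Compound exposure: 90 min, 37 °C.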

UniProt O75388, sequence (O75388 whole entry, looked up, the tested form may be a part): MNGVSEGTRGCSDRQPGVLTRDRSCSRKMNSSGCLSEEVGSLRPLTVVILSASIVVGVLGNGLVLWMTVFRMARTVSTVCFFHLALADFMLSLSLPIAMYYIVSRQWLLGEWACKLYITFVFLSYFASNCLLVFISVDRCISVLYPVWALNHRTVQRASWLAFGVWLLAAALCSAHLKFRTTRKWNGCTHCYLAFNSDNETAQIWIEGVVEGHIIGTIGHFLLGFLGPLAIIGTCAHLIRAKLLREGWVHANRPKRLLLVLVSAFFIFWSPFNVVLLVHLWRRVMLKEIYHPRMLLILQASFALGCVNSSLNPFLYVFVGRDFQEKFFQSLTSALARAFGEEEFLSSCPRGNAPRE

| Compound | activation |
| --- | --- |
| Cc1cccc(CC(=O)NC2CC(=O)N(c3ccccc3)C2)c1 (stereo not drawn) | inactive: -4.51% |
| COc1ccc(C(CNC(=O)Cc2ccc(Cl)cc2)N2CCOCC2)cc1 (stereo not drawn) | inactive: -1.88% |
| O=C(CSc1nc(=O)n(CCN2CCOCC2)c2c1CCC2)Nc1cccc(Cl)c1 | inactive: -11.4% |
| O=C(CC(c1cccs1)N1Cc2ccccc2C1=O)Nc1ccc(F)cc1F (stereo not drawn) | inactive: -2.66% |
| Cc1cc2c(cc3c(SCc4cccc(F)c4)nnc(C)n32)o1 | inactive: -32.1% |
| Cc1cccc(C(=O)N2CCC(N3CCN(Cc4ccc(F)cc4)C(=O)C3=O)CC2)c1 | inactive: -10.4% |
| Cc1ccc(O)c(NC(=O)c2cc(-c3ccc(F)cc3)on2)c1 | inactive: -0.444% |
| COc1cc(NC(=O)CN2C(=O)C(c3ccc(Cl)cc3)=NC23CCCCC3)cc(OC)c1 | inactive: -28.7% |
| CC(C)c1ccc(C2c3c(oc4ccc(Cl)cc4c3=O)C(=O)N2CCCN2CCOCC2)cc1 (stereo not drawn) | inactive: -18.6% |
| Cc1ccc(C2=CC(c3ccc(Cl)cc3)n3nc(-c4ccc(C)cc4)nc3N2)cc1 (stereo not drawn) | inactive: -16.4% |
| COc1ccc(NC(=O)CCc2nc3cccnc3n2-c2ccccc2)cc1Cl | inactive: 10.1% |
| O=c1c2c3c(sc2n(Cc2ccccc2F)c(=O)n1-c1ccc(Cl)cc1)CCCC3 | inactive: 8.04% |
| COC(=O)c1ccc(Cl)cc1NC(=O)NC(C)c1c(-n2cccc2)sc(C)c1C (stereo not drawn) | inactive: -25.6% |
| O=C(O)C1(C(=O)O)CCC1.[NH2-].[NH2-].[Pt+2] | inactive: 43.1% |
| Cc1ccc2nc(NC(=O)c3ccc(S(=O)(=O)N4CCCc5ccccc54)cc3)sc2c1 | inactive: -17.2% |
| COCCCn1c(=O)c2sccc2n2c(CCCC(=O)Nc3ccc(F)c(F)c3)nnc12 | inactive: -6.22% |
| COc1ccc(OC)c(NC(=O)c2c(NCc3ccc(OC)c(OC)c3)sc3c2CCC(C)C3)c1 (stereo not drawn) | inactive: -11.6% |
| O=C(C1CCCCC1)N(Cc1cccnc1)c1nc2c(F)cc(F)cc2s1 | inactive: -29.5% |
| CCN1CCOC(=O)C1CC(=O)Nc1ccc(C)c(Cl)c1 (stereo not drawn) | inactive: 39.7% |
| COc1ccc(CNC(=O)CCC2N=C3c4ccccc4N=C(SCc4ccc(F)cc4)N3C2=O)cc1 (stereo not drawn) | inactive: -3.93% |
| Cc1ccccc1-c1nc2scc(CCNC(=O)C(=O)Nc3ccc(F)cc3F)n2n1 | inactive: 42.1% |

| Compound | activation |
| --- | --- |
| Cc1cc(C)nc(NS(=O)(=O)c2ccc(NC(=O)c3cc(=O)c4ccc(C)c(C)c4o3)cc2)n1 | inactive: 22.6% |
| CN1CCN(C2(CNC(=O)c3ccc([N+](=O)[O-])cc3)CCCCC2)CC1 | inactive: -8.31% |
| O=C(CSc1nc2c([nH]c3ccccc32)c(=O)n1-c1ccccc1)c1ccc(Cl)cc1 | inactive: -8.94% |
| COc1cc(NS(=O)(=O)c2ccc3[nH]c4c(c3c2)CCCC4)cc(OC)c1OC | active: 82.2% |
| Nc1c(C(=O)NCCc2ccccc2)nnn1CC(=O)Nc1ccc(Cl)cc1 | inactive: -5.06% |
| Cc1ccc(Nc2c(-c3ccc(N4CCOCC4)cc3)nc3c(C)cccn23)cc1 | inactive: -28.2% |
| COc1ccc(CC(=O)Nc2ccc3nc(Nc4cccc(Cl)c4)cc(C)c3c2)cc1 | inactive: -18.8% |
| CCOC(=O)C1CCCN(c2c(C(=O)c3ccc(C)cc3)cnc3ccc(OCC)cc23)C1 (stereo not drawn) | inactive: -60.6% |
| CCOC(=O)c1ccc(NC(=O)CCCc2nc(-c3cc(OC)c(OC)c(OC)c3)no2)cc1 | inactive: -12.6% |
| CCCNC(=O)C1CCC(Cn2c(=O)c3sccc3n(CC(=O)NCc3ccccc3)c2=O)CC1 (stereo not drawn) | inactive: -6.11% |
| O=C(CN1C=NS(=O)(=O)c2ccccc21)Nc1ccccc1F | inactive: 3.99% |
| O=C(NCc1ccccc1F)C1CCCN(C(=O)N2CCOc3ccccc32)C1 (stereo not drawn) | inactive: -14.7% |
| Cc1nn(CCCC(=O)NCc2ccccc2Br)c(=O)c2c1sc1ccccc12 | inactive: -8.37% |
| CCOc1ccc(S(=O)(=O)N(CC(=O)Nc2ccc(OC)cc2OC)c2ccccc2)cc1 | inactive: -6.21% |
| COc1ccc(S(=O)(=O)N(CC(=O)N2CCc3ccccc3C2)c2ccc(C)cc2)cc1 | inactive: -1.16% |
| Cc1cccc2nc(Cn3c(=O)n(-c4ccc(Cl)cc4)c(=O)c4c5c(sc43)CCC5)cc(=O)n12 | inactive: -3.07% |
| CCOc1ccc(C(=O)Nc2cccc(C(=O)OCc3cc(=O)n4cc(C)sc4n3)c2)cc1 | inactive: -12.4% |
| COc1ccc(-c2nc3ccccc3o2)cc1NC(=O)COc1ccc(C)c(C)c1 | inactive: 3.33% |
| COc1ccc(OC)c(CNS(=O)(=O)c2ccc3c(c2)oc(=O)n3C)c1 | inactive: 3.04% |
| COc1ccc(Br)cc1CNC(=O)c1cc(=O)[nH]c2ccc(S(=O)(=O)N3CCCCC3C)cc12 (stereo not drawn) | inactive: -35.2% |
| CCn1cc(C(=O)NCCc2ccccc2)c(=O)c2cc(S(=O)(=O)N3CCCCCC3)ccc21 | inactive: -14.7% |

| Compound | activation |
| --- | --- |
| Cc1nn(C(C)C(=O)N2CCN(c3ccc(F)cc3)CC2)c(=O)c2c1sc1ccccc12 (stereo not drawn) | inactive: -17.7% |
| COc1ccc(N2C(=O)CS(=O)(=O)C23C(=O)N(Cc2ccccc2F)c2ccccc23)cc1Cl (stereo not drawn) | inactive: -30.3% |
| CC(=O)N1c2ccc(S(=O)(=O)N3CCC(C(=O)Nc4cccc(Cl)c4C)CC3)cc2CC1C (stereo not drawn) | inactive: 10.5% |
| CC1=C(C/C=C(\C)CCC[C@H](C)CCC[C@H](C)CCCC(C)C)C(=O)c2ccccc2C1=O | inactive: 6.17% |
| Cc1cccc(C)c1NC(=O)C1CCCN1S(=O)(=O)c1ccccc1 (stereo not drawn) | inactive: -5.58% |
| Cc1cccc(Cn2cc(S(=O)(=O)c3ccccc3)c(=O)c3cc(F)c(N4CCOCC4)cc32)c1 | inactive: -15.4% |
| CCOC(=O)Cn1c(=O)n(-c2cccc(Cl)c2)c2nc(-c3ccccc3Cl)nc(C(N)=O)c21 | inactive: -0.551% |
| Cc1ccc2c(CC(=O)Nc3ccc(S(=O)(=O)N4CCCCC4C)cc3)coc2c1C (stereo not drawn) | inactive: -16.5% |
| O=C(OCCOCCO)c1ccccc1Nc1cccc(C(F)(F)F)c1 | inactive: 41.2% |
| CCc1ccc2ncc3c(-c4ccc(F)cc4)nn(CC(=O)NC4CCCCC4)c3c2c1 | inactive: 8.41% |
| Cc1ccccc1OC(=O)c1nc(SCc2ccccc2F)ncc1Cl | inactive: 5.53% |
| COc1ccc(N2CCN(CCCNC(=O)c3nnc(Cc4ccc(F)cc4)o3)CC2)cc1 | inactive: -12.9% |
| CN(C)c1ccc(CNC(=O)Cc2ccc(NC(=O)N3CCCCc4ccccc43)cc2)cc1 | inactive: -0.569% |
| Cc1ccc(CSc2nnc([C@@H](N)C(C)C)o2)cc1 | inactive: 11.6% |
| CCC(Oc1ccccc1)C(=O)Nc1cccc(OCc2cc(=O)n3cccc(C)c3n2)c1 (stereo not drawn) | inactive: -21.7% |
| Cc1c(C)c2c(cc(C)c3c(-c4ccc(Br)cc4)coc32)oc1=O | inactive: -2.18% |
| CCOC(=O)c1cccc(NC(=O)CCn2c(=O)oc3ccccc32)c1 | inactive: 20.1% |
| CC(=O)c1ccc(NC(=O)Cn2c(=O)cc(C)c3c(C)nn(-c4cccc(F)c4)c32)cc1 | inactive: -20% |
| COc1cccc(NC(=O)CSc2nc(C)c(Cc3ccccc3)c(=O)[nH]2)c1 | inactive: 10.1% |
| CCOC(=O)c1c(C)[nH]c(C)c1S(=O)(=O)NCC(=O)Nc1cccc(SC)c1 | inactive: 2.74% |
| CCC1CCc2nc3sc(C(=O)Nc4cccc(F)c4)c(N)c3cc2C1 (stereo not drawn) | inactive: 14.4% |

| Compound | activation |
| --- | --- |
| CCN(CC)c1ccc(C(=O)NCc2nc3cccnc3n2Cc2ccc(C)cc2)cc1 | inactive: -25.9% |
| Cc1ccc(C2N=C(N)Nc3nc4ccccc4n32)cc1 (stereo not drawn) | inactive: 17.2% |
| Cc1cccc(-c2nc3c4c(-c5ccccc5)c(-c5ccccc5)oc4ncn3n2)c1 | inactive: 14.5% |
| COc1cccc2sc(N(Cc3cccnc3)C(=O)c3ccco3)nc12 | inactive: -28.2% |
| Cc1nn(C)c(C)c1S(=O)(=O)N(CC(=O)NCCc1ccc(Cl)cc1)c1ccc(C(C)C)cc1 | inactive: -14.5% |
| CCCCOc1ccc(C2=NC(c3cccs3)=Nc3ccc(OC)cc3N2)cc1 | inactive: -25.7% |
| COc1ccc(OC)c(CNC(=O)c2c(C)oc3ncn(CC(C)C)c(=O)c23)c1 | inactive: -22.8% |
| COc1ccc(NC(=O)c2c(NCc3cccc(F)c3)sc3c2CCC3)c(OC)c1 | inactive: -3.12% |
| CSCCC(NS(=O)(=O)c1ccc2c(c1)oc(=O)n2C)C(=O)Nc1ccc(F)c(Cl)c1 (stereo not drawn) | inactive: -16.5% |
| Cc1cccc(NC(=O)c2cnc3sc(N4CCCC4)nn3c2=O)c1C | inactive: -9.15% |
| O=C(NCC(c1cccnc1)N1CCN(c2ccccc2F)CC1)c1ccc(F)cc1 (stereo not drawn) | inactive: 10.9% |
| Cc1cc(C)cc(NC(=O)Cc2csc(COc3cccc(C)c3)n2)c1 | inactive: -20.8% |
| COc1ccc(C)cc1NC(=O)C(=O)NCCc1sc(-c2cccc(C)c2)nc1C | inactive: 9.52% |
| COc1cc2c(cc1OC)C(=O)CC2 | inactive: 3.73% |
| Cc1ccccc1C(=O)Nc1ccc(S(=O)(=O)N2CCC(c3nc4ccccc4s3)CC2)cc1 | inactive: -16.6% |
| CC(C)Cc1cc(C(=O)NCc2ccc(Cl)cc2)no1 | inactive: 16.5% |
| CCCCc1ccc(-n2nc3ccc(NC(=O)c4cc5ccccc5o4)cc3n2)cc1 | inactive: 28.1% |
| CCc1ccc2oc(-c3ccc(C)c(NC(=O)c4cc([N+](=O)[O-])ccc4N4CCOCC4)c3)nc2c1 | inactive: 22.3% |
| COc1ccc(-n2c(=O)c3c4c(sc3n(Cc3ccc(F)cc3)c2=O)CN(C(C)=O)CC4)c(OC)c1 | inactive: 0.446% |
| CCC(CC)C(=O)N1c2ccccc2C(C)(c2ccccc2)CC1(C)C (stereo not drawn) | inactive: 24.5% |
